# The other results are listed elsewhere or left out. The energies were worked out here from pooled read counts, against the library average; single values are noisy.
# Target: T1, Pho4 (S. cerevisiae) (UniProt P07270)
# T1 sequence: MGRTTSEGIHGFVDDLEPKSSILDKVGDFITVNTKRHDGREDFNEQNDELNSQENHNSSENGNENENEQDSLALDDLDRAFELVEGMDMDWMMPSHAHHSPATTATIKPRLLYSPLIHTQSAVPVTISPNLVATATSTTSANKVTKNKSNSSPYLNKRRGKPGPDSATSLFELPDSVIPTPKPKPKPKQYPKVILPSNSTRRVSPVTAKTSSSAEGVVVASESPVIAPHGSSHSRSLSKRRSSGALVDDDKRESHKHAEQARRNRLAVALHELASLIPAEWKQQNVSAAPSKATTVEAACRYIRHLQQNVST
# Test: relative binding free energy (BET-seq); higher = weaker binding
# Conditions: reference: library average
row,Sequence,relative binding free energy
1,TAGAGCACGTGGCTGG,-0.18 kcal/mol
2,CGTATCACGTGTGAAG,0.23 kcal/mol
3,CTGAGCACGTGTTTAG,-0.01 kcal/mol
4,TGTCACACGTGGGGAT,-0.19 kcal/mol
5,TTCGGCACGTGGTTGG,0 kcal/mol
6,AGTGGCACGTGGACAG,-0.19 kcal/mol
7,AGCGTCACGTGGTGGC,0.02 kcal/mol
8,TTAGACACGTGCAAGG,0.06 kcal/mol
9,AAGGACACGTGTGTTC,0.18 kcal/mol
10,TTTTTCACGTGGCGCA,0.42 kcal/mol
11,GGTAACACGTGTAGCT,0.22 kcal/mol
12,TGTTGCACGTGCAGTG,0.04 kcal/mol
13,CGGGACACGTGGTGCG,0 kcal/mol
14,TGTGCCACGTGTCGGC,0.02 kcal/mol
15,TAGATCACGTGGGTGA,-0.07 kcal/mol
16,GGCATCACGTGTTTGT,0.16 kcal/mol
17,CTTGTCACGTGGTGTG,0.01 kcal/mol
18,GGGTCCACGTGTATTG,0.04 kcal/mol
19,CTAGTCACGTGAATTT,0.32 kcal/mol
20,TTGCTCACGTGTTAGG,0.22 kcal/mol
21,GGGAACACGTGGGTAA,0.04 kcal/mol
22,GGTTCCACGTGATGGG,0.29 kcal/mol
23,GAAGGCACGTGGTTAT,-0.08 kcal/mol
24,GTTGGCACGTGTTAAG,0.02 kcal/mol
25,TAATACACGTGCGTGG,-0.04 kcal/mol
26,TTTGACACGTGGCGGA,-0.07 kcal/mol

row,Sequence,relative binding free energy
1,GGCTGCACGTGGCGGG,-0.07 kcal/mol
2,TGTATCACGTGTGGGC,0.16 kcal/mol
3,AGAAACACGTGGTGTG,-0.08 kcal/mol
4,CATAGCACGTGTTGGT,0.08 kcal/mol
5,ATTCTCACGTGATGGA,0.24 kcal/mol
6,AGGTTCACGTGGGTTC,0.17 kcal/mol
7,GTTTTCACGTGGGCGC,0.33 kcal/mol
8,GCTTGCACGTGAGTGG,0.15 kcal/mol
9,GGCGACACGTGAGTTG,0.35 kcal/mol
10,AGGGGCACGTGTCTGT,-0.16 kcal/mol
11,AAATTCACGTGGCGGT,0.19 kcal/mol
12,GCCGGCACGTGGGGAG,-0.15 kcal/mol
13,TATGACACGTGCAGGG,-0.05 kcal/mol
14,ATGTGCACGTGAGGAC,0.11 kcal/mol
15,GGTCACACGTGTGAGT,0.22 kcal/mol
16,GCTGGCACGTGAGATG,0.17 kcal/mol
17,GGTGCCACGTGCGGTT,-0.19 kcal/mol
18,CAAATCACGTGTGGTA,0.27 kcal/mol
19,AGGGTCACGTGTCTGT,0.11 kcal/mol
20,GAGGGCACGTGTTCTT,0.06 kcal/mol
21,TTCTTCACGTGTCATG,0.22 kcal/mol
22,TGGGGCACGTGGTGAG,-0.13 kcal/mol
23,AGGTGCACGTGGGGTA,-0.19 kcal/mol
24,AGTAGCACGTGAGGGC,0.08 kcal/mol
25,TTTCGCACGTGTTATT,0.08 kcal/mol
26,ATTAACACGTGGGGGG,-0.09 kcal/mol

row,Sequence,relative binding free energy
1,CTTGTCACGTGGAGTT,0.04 kcal/mol
2,ATATGCACGTGCTTGT,-0.15 kcal/mol
3,GGAGGCACGTGTTGAG,0.05 kcal/mol
4,TGTATCACGTGTAACT,0.21 kcal/mol
5,GGAAGCACGTGGTTTA,0 kcal/mol
6,TTTCTCACGTGTGTAG,0.27 kcal/mol
7,GATTTCACGTGGTGGA,0.29 kcal/mol
8,CTTTACACGTGAAGTT,0.43 kcal/mol
9,AATTACACGTGGTCGG,-0.04 kcal/mol
10,GGGTACACGTGAATGC,0.31 kcal/mol
11,CTGGTCACGTGGGACT,0.06 kcal/mol
12,TTATTCACGTGCTCTT,0.22 kcal/mol
13,CTTTTCACGTGTTCAT,0.25 kcal/mol
14,GTTGACACGTGGATGT,0.13 kcal/mol
15,AATGGCACGTGTGAGT,0.03 kcal/mol
16,CAATGCACGTGGAGGG,-0.16 kcal/mol
17,GAATTCACGTGGGATG,0.21 kcal/mol
18,TTGGCCACGTGGTCTG,-0.03 kcal/mol
19,GTTACCACGTGGTTGG,-0.08 kcal/mol
20,AGGGTCACGTGGTCGG,0.06 kcal/mol
21,TGATGCACGTGAGGTC,0.24 kcal/mol
22,GCGTACACGTGGGTAG,-0.16 kcal/mol
23,CGGTGCACGTGAATGT,0.23 kcal/mol
24,TAAGGCACGTGGGCAG,-0.35 kcal/mol
25,GAAATCACGTGTTTTA,0.27 kcal/mol
26,CGAGTCACGTGGTTGC,0.1 kcal/mol

row,Sequence,relative binding free energy
1,GGAGCCACGTGCTGGT,-0.05 kcal/mol
2,TCGGTCACGTGATAGG,0.16 kcal/mol
3,AAGCGCACGTGAGGTG,0.09 kcal/mol
4,AAGTACACGTGTGTTT,0.28 kcal/mol
5,AGAATCACGTGTTATG,0.26 kcal/mol
6,TTGAGCACGTGGGTCT,-0.27 kcal/mol
7,ATTCTCACGTGTTGGT,0.27 kcal/mol
8,ACTGTCACGTGGGGTG,-0.11 kcal/mol
9,AATGTCACGTGGTTTA,0.02 kcal/mol
10,AGGTTCACGTGCCTGG,0.26 kcal/mol
11,TTCTACACGTGTATAT,0.1 kcal/mol
12,TTTTGCACGTGTATCT,0.13 kcal/mol
13,GGTTGCACGTGAAGGC,0.33 kcal/mol
14,GGTGCCACGTGCAGGT,-0.16 kcal/mol
15,TTAGTCACGTGATACT,0.14 kcal/mol
16,GTCATCACGTGAAGGG,0.39 kcal/mol
17,TTTTACACGTGTTTCA,0.19 kcal/mol
18,ATGCGCACGTGAAGAT,0.33 kcal/mol
19,AGGGGCACGTGGGGTC,-0.19 kcal/mol
20,TCGGGCACGTGGAGTC,-0.09 kcal/mol
21,TTGTGCACGTGACATA,-0.01 kcal/mol
22,GAGAGCACGTGATTGG,0.04 kcal/mol
23,AATGTCACGTGAATGT,0.09 kcal/mol
24,TTTTTCACGTGAGATA,0.35 kcal/mol
25,ATCTTCACGTGTGTTC,0.3 kcal/mol
26,CAATGCACGTGAGGAG,0.35 kcal/mol

row,Sequence,relative binding free energy
1,AGTCGCACGTGGAGTG,-0.04 kcal/mol
2,AATTACACGTGATGGG,0.19 kcal/mol
3,TAATCCACGTGGGGTA,-0.11 kcal/mol
4,GTTAGCACGTGCGTGG,-0.11 kcal/mol
5,ATTTTCACGTGGTTCC,0.37 kcal/mol
6,GGTACCACGTGGTCTT,-0.01 kcal/mol
7,TGAGTCACGTGAGGTT,0.16 kcal/mol
8,TTGTCCACGTGTAGTA,-0.05 kcal/mol
9,GGATGCACGTGCGTGG,-0.06 kcal/mol
10,TATGGCACGTGGGACT,-0.21 kcal/mol
11,GTATACACGTGATTAT,0.09 kcal/mol
12,GTATCCACGTGGTTAT,-0.03 kcal/mol
13,TGATTCACGTGGATTG,0.23 kcal/mol
14,GGGTTCACGTGGCATG,0.29 kcal/mol
15,GCTGTCACGTGGGGTG,-0.04 kcal/mol
16,CGGCACACGTGGTAGG,-0.06 kcal/mol
17,ATGGTCACGTGTGGCG,0.16 kcal/mol
18,GGGAGCACGTGGAAGA,-0.01 kcal/mol
19,GGGAACACGTGGGCGG,-0.21 kcal/mol
20,TAAGTCACGTGTAGCT,0.19 kcal/mol
21,GGAGACACGTGAGCGT,0.21 kcal/mol
22,CTGGGCACGTGCGTGA,-0.2 kcal/mol
23,GGGCACACGTGGATTG,0.07 kcal/mol
24,TAATGCACGTGGGATA,0.01 kcal/mol
25,TGTGTCACGTGGAATA,0.11 kcal/mol
26,GGGTGCACGTGAGTAA,0.25 kcal/mol

row,Sequence,relative binding free energy
1,AAGAGCACGTGTGTGG,-0.18 kcal/mol
2,TGGGTCACGTGTTCCT,0.2 kcal/mol
3,TGTTACACGTGTTAAA,0.14 kcal/mol
4,TTAGTCACGTGATGTC,0.12 kcal/mol
5,GGCGTCACGTGTGTAT,0.19 kcal/mol
6,GATATCACGTGTCTGT,0.18 kcal/mol
7,GGGGACACGTGGGGTT,-0.05 kcal/mol
8,TTGGGCACGTGTATCT,-0.16 kcal/mol
9,TGATGCACGTGATCTT,0.06 kcal/mol
10,GTTGTCACGTGGGAAG,0.01 kcal/mol
11,TGTTGCACGTGACGTG,0.14 kcal/mol
12,TATGTCACGTGGCGCG,-0.01 kcal/mol
13,GGAATCACGTGAGTGG,0.39 kcal/mol
14,TGTGCCACGTGTAGGA,-0.2 kcal/mol
15,GTGGGCACGTGGTGTG,-0.18 kcal/mol
16,TGTTGCACGTGTTGCA,-0.05 kcal/mol
17,GAGGTCACGTGAGGGG,0.34 kcal/mol
18,TGTTGCACGTGCGTAA,0.05 kcal/mol
19,ATTGGCACGTGTGGAT,-0.14 kcal/mol
20,GTGTACACGTGATTGG,0.13 kcal/mol
21,TGGTGCACGTGCGGTC,-0.14 kcal/mol
22,ATGGACACGTGGTGGC,0.1 kcal/mol
23,GGATACACGTGGTGAG,0.03 kcal/mol
24,GGCTGCACGTGCGAGG,0.04 kcal/mol
25,ATTTACACGTGGCTAT,0.05 kcal/mol
26,ATTAACACGTGTATTG,-0.13 kcal/mol

row,Sequence,relative binding free energy
1,GTAAGCACGTGTGGTT,0.07 kcal/mol
2,AGCTACACGTGGATGG,0.04 kcal/mol
3,ATTTACACGTGGGGTT,0.15 kcal/mol
4,AGGAGCACGTGTATCT,0.07 kcal/mol
5,AGGGGCACGTGCGTTT,-0.24 kcal/mol
6,TCTGGCACGTGTTGTG,-0.07 kcal/mol
7,CAGGTCACGTGTGGTG,0.01 kcal/mol
8,ATTGGCACGTGTGTCG,-0.09 kcal/mol
9,GGACACACGTGTATGG,0.27 kcal/mol
10,AGGGCCACGTGAGTAT,0.09 kcal/mol
11,TTTCTCACGTGTGGTG,0.31 kcal/mol
12,CGTGTCACGTGGGCTT,-0.07 kcal/mol
13,TCATTCACGTGGTCGT,0.32 kcal/mol
14,TGTCGCACGTGCATTG,0.17 kcal/mol
15,CAGGTCACGTGAATGT,0.24 kcal/mol
16,GATTACACGTGGGCTG,0.01 kcal/mol
17,GTAGGCACGTGTATAG,-0.05 kcal/mol
18,AGTTACACGTGAGTCT,0.31 kcal/mol
19,AGGACCACGTGGTTGT,-0.18 kcal/mol
20,TGATTCACGTGCTAGG,0.24 kcal/mol
21,GGTTTCACGTGCATTG,0.25 kcal/mol
22,TATTCCACGTGGTTAT,0.04 kcal/mol
23,CGAGACACGTGTTTGT,-0.05 kcal/mol
24,GTCGGCACGTGTGAAT,0.11 kcal/mol
25,TGAGTCACGTGGGGTA,-0.1 kcal/mol
26,TAGTACACGTGCTAGG,0.1 kcal/mol

row,Sequence,relative binding free energy
1,TAGGGCACGTGCGCGG,-0.3 kcal/mol
2,TGTCTCACGTGGATTG,0.27 kcal/mol
3,TCGTGCACGTGAGAGG,0.14 kcal/mol
4,CTTGGCACGTGTGATT,0.13 kcal/mol
5,GGTCACACGTGGGGGT,-0.06 kcal/mol
6,TGCTTCACGTGAAGTT,0.28 kcal/mol
7,GGTGCCACGTGAGATG,0.18 kcal/mol
8,GAATTCACGTGGTGTA,0.36 kcal/mol
9,GTGCTCACGTGATGGG,0.45 kcal/mol
10,GGTCTCACGTGGAGTA,0.24 kcal/mol
11,AACGGCACGTGAGGTA,0.13 kcal/mol
12,AGGTCCACGTGTGGCG,0.11 kcal/mol
13,TTCTACACGTGTGGTT,0.14 kcal/mol
14,AAATTCACGTGGGTCG,0.31 kcal/mol
15,GGCTACACGTGTAGGT,0.21 kcal/mol
16,CAATTCACGTGGGAGG,0.14 kcal/mol
17,GGGGGCACGTGTCGCT,-0.07 kcal/mol
18,GATTGCACGTGGGGCT,-0.03 kcal/mol
19,GGTCCCACGTGATGGG,0.1 kcal/mol
20,TGTTTCACGTGGGTCC,0.29 kcal/mol
21,TCTTTCACGTGGAGAG,0.34 kcal/mol
22,TACGGCACGTGAGTGT,0.07 kcal/mol
23,TACTGCACGTGGTCGT,-0.06 kcal/mol
24,AATTACACGTGAGTGG,0.33 kcal/mol
25,GAGATCACGTGGCGGT,0.15 kcal/mol
26,ATAGGCACGTGTGAAA,0 kcal/mol

row,Sequence,relative binding free energy
1,GGGTCCACGTGTTTGC,0.16 kcal/mol
2,AGGTACACGTGTAGTT,0 kcal/mol
3,ATTTGCACGTGGATGG,0.04 kcal/mol
4,GATGTCACGTGGTTAC,0.21 kcal/mol
5,GTATGCACGTGACTTG,0.06 kcal/mol
6,GTGTACACGTGGCTGG,-0.03 kcal/mol
7,GCGATCACGTGGGATG,0.13 kcal/mol
8,AGTGGCACGTGATTGT,0.02 kcal/mol
9,TCAGTCACGTGAGTGT,0.29 kcal/mol
10,CGGGTCACGTGCGAGG,0 kcal/mol
11,ATGATCACGTGATTAT,0.43 kcal/mol
12,TCGTGCACGTGGTAGC,-0.09 kcal/mol
13,GGGTTCACGTGTGCAA,0.26 kcal/mol
14,GGAGTCACGTGTGTTA,0.23 kcal/mol
15,TTACTCACGTGTAGAG,0.26 kcal/mol
16,ATTGGCACGTGAGGAA,0.01 kcal/mol
17,GTTGGCACGTGTTCAA,0.02 kcal/mol
18,AAAGGCACGTGATGGA,0.09 kcal/mol
19,TGAAGCACGTGTAGGG,-0.08 kcal/mol
20,TTCTACACGTGGGGGT,0.03 kcal/mol
21,CGGCTCACGTGGGTGG,0.04 kcal/mol
22,TATTTCACGTGGGAGG,0.18 kcal/mol

# Source: the BET-seq Pho4 binding data (Le et al. 2018)
